Source: paper PMC10726135
The other results are listed elsewhere or left out. At the low end of the ranking, values are background and their order means little. Measured with an extract: partners may take part in the binding.

molecular target: T1, HNF4alpha8 (COS-7 nuclear extract) (UniProt P41235-5); experiment: protein-binding microarray; conditions: COS-7 nuclear extract on double-stranded Agilent 4x180k PBM; binding buffer, salt, pH and temperature not given; high values mean tight binding; double strand, one strand shown; sequences stand for … in …GCCTAGGGAGATTAGAGTATCGGTCGA
T1 sequence: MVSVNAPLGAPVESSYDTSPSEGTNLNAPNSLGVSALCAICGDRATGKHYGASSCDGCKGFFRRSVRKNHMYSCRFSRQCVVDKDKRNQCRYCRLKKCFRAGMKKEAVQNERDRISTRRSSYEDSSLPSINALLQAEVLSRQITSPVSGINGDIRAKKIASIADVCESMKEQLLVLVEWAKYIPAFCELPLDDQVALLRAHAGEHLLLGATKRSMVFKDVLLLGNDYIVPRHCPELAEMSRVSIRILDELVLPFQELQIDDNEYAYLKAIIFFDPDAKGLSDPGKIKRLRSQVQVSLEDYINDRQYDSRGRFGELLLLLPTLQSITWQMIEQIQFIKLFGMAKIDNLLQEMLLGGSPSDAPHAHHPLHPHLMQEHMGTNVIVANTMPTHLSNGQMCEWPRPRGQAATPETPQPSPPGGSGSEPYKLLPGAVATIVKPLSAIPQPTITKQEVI

Row | Sequence | binding signal (log2 normalized intensity)
1 | TTTGCTCTGTTGTGTCAAAGGTCACTTAGT | 6.22
2 | AGTCCACCAACTCTGTGAATTCATTTTTTT | 0.232
3 | CATTTCAGTGAACTTTTCAATGCTCCAGTA | 0.815
4 | ACTTAACAAGTGAAAGTCTAAAGTTCAGTG | 5.16
5 | ACTGGGAGATAATGCACTGGTGACTTTAAG | -0.117
6 | CAACTAAAGGAATGCGCCTGAACTGACTGC | -1.26
7 | CCTTTTCACGCTAAGAAGGAATCTGTTCAC | 0.737
8 | GGAATGAAACCAGTTTCAAAACCTGATTCT | -1.25
9 | CCAGTCGCTTAACCTCTTGATCCTGAGTTT | 1.76
10 | TTGAACTGAAGGATATTGGCAACGCCTCAG | -1.25
11 | CAAAGGAGCTTTATTGGTTCCATAAGTCAA | 0.795
12 | ACATTTAACTTAACCACTCAATCAGTACTG | -0.448
13 | AGGAATTCTGATCTTTGACCTCTCCAGGGT | 7.01
14 | CAAAGGACAGGCTGACTATCACTGGGAGAT | -1.28
15 | CAGGGCACATGTACACAGGAATATCAACAG | -1.25
16 | ACAGCATTAGAGCAACCAGAATGTTCAAAA | -1.14
17 | CCAAACCAGTTCAACAAGAATTCCCCACTC | -0.505
18 | ATCAGCAATGAACAAAGGTCGGTGGTATGT | 3.25
19 | TCCCAGAGCATACATGCAGCTGAGAAAGAG | -1.42
20 | GAGCAAGAAACAGCAAATGCTTTTATTACC | -1.37

Row | Sequence | binding signal (log2 normalized intensity)
21 | AAACTCAGAGTCAAATCCCCTAGGTGATTA | -0.758
22 | TAAAACAAACTCATTTTGATCTTTGTGTAC | 3.19
23 | TAACCATTCTTTCTGAGAAAAGCTGATGAC | -1.07
24 | AGGGGTGGGGACCTTTGGGCTCTGACCCGA | 3.4
25 | AGTATCTATAGTTATTGCATGCAAGAGTTC | 1.83
26 | GGGCCGGCTCAGGAGAAGGGCCCATGGGCT | -1.38
27 | CCTGAAGGCTGAGCCTAGGAGTTCAATGCT | -1.21
28 | TCTGCTTAAAGGCAAAGTCCAGAACCTGGA | 3.78
29 | CAGACTAAACTCACAATGGGGCATGACTTG | -0.674
30 | TAAGAAAGGCTACAAAGGTGACTTGCCCAG | -0.214
31 | CTGACAGACTGCCATTCCAGAAGTAGGATG | -1.42
32 | TTGCACAGTATTTGGTGAGGCCCCAGTGTC | 1.76
33 | CATTCTTATCACAGAGCATCTGGTGGAACT | 1.04
34 | CCAGGGGAAACTCCATTTCCTTCTAGCTCC | -1.31
35 | ATAACACACAGGCTCAACGGGTTAGACGCA | -1.47
36 | GACAGGCTAATGAGATAATGCTGGTAAAGC | -1.33
37 | GGGAAAGGGATAAGATTAGGTGCTGAGCAA | -1.27
38 | CAAACAGGTCAAGCAATGCTGGGGACCTTT | 3.76
39 | AGCAGCTGTTTGACCAAAGCTACTCATCAT | -1.3
40 | GTATAACCTGGAACTGAAAGAGACCTTTGA | 6.06
